In ChEMBL document CHEMBL1201862, “PubChem BioAssay data set” (2004):
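Step 1: Grow cells in 96-well plates. Step 2: Expose to compound for 48 hours at 5 concentrations. Step 3: Interpolate endpoints linearly; if unreached, use highest concentration. The concentration for 50% growth inhibition is given as GI50.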 Active and inactive are the calls of the source. No stated cut-off is given here; in the data, active = GI50 up to about 1.1 µM and inactive = higher.

These compounds were tested on NCI-H322M (assay: NCI-60 cell line screen, 48 h).
For `[N-]=[N+]=NCC(O)Cn1cnc2c(NC(=O)c3ccccc3)ncnc21` (centres undefined), the GI50 was inactive: > 100 µM.
`N#Cc1nc(C(F)(F)F)oc1N` was tested, and the GI50 was inactive: > 100 µM.
For `Cc1cccc2cc3cccc(C(=O)NCCN(C)C)c3nc12`, the GI50 was active: 0.265 µM.
For `CN(C)CCN(/C(=N/c1ccccc1)N1CCCC1)c1ccccc1`, the GI50 was inactive: > 100 µM.
For `O=[N+]([O-])c1ccc(-c2csc(=[N+]3CCCCC3)s2)cc1`, the GI50 was inactive: 31.3 µM.
`CC(C)(C)c1cc(C2COC(=O)COCC(=O)OCCOCCOCCO2)cc(C(C)(C)C)c1O` (centres undefined) was tested, and the GI50 was inactive: 39 µM.
`O=[N+]([O-])c1ccc(NN=C2CN3CCN(C2)c2ccccc23)c([N+](=O)[O-])c1` was tested, and the GI50 was inactive: > 100 µM.
In the case of `C=C[C@@H]1C(CO)=CCC2[C@H]1CCC1C(C)(C)C(=O)CC[C@]21C` (some centres undefined), the GI50 was inactive: > 100 µM.
`N#CC1(CCCCl)CCCCC1` was tested, and the GI50 was inactive: > 100 µM.
With `C/C(Sc1ccccc1)=C1/CCCN(Cc2ccccc2)C1` the GI50 was inactive: 33.9 µM.
For `C[C@]12CC[C@H]3[C@@H](CCC4=CC(=O)CC[C@@]43C)[C@]1(O)CC[C@]2(O)C(=O)CO`, the GI50 was inactive: > 100 µM.
For `O=C1Nc2c(Cl)cc(Cl)cc2/C1=N/N=C/c1ccco1`, the GI50 was inactive: 55 µM.
In the case of `CCOCN/C(N)=N\C#N`, the GI50 was inactive: > 100 µM.
For `Cc1nc(SCC(=O)Nc2ccccc2)c2sc(=S)n(-c3ccccc3)c2n1`, the GI50 was inactive: > 10 µM.
With `O=C(COc1ccc2c(=O)cc(-c3ccccc3)oc2c1)N1CCN(c2ccccc2)CC1` the GI50 was inactive: > 100 µM.
With `N=C(N)SCCc1ccncc1` the GI50 was inactive: > 100 µM.
In the case of `CCCCCCNC(=O)c1cc(NCc2cc(OC)ccc2OC)ccc1O`, the GI50 was inactive: 35.1 µM.
In the case of `CCCCOc1ccc2c(c1)CC[C@@H]1[C@@H]2CC[C@]2(C)C(=O)N(CCCC)C(=O)C[C@@H]12`, the GI50 was inactive: > 100 µM.
For `COc1cccc(N2C(=O)CSC2c2cc(OC)c(OC)c(OC)c2)c1` (centres undefined), the GI50 was inactive: 38.5 µM.
For `CCC(C)(C)NS(=O)(=O)c1ccccc1`, the GI50 was inactive: > 100 µM.
For `CC(=O)Nc1ccc(C2C(C(=O)Nc3ccccc3C)=C(C)NC(C)=C2C(=O)Nc2ccccc2C)cc1`, the GI50 was inactive: > 38.2 µM.
With `CC1=C(C)C(=O)OC(C(C)(O)C2(O)CCC3(O)C4CC(Cl)C5(O)C(O)C=CC(=O)C5(C)C4CCC32C)C1` (centres undefined) the GI50 was inactive: 46.8 µM.
`COC1=CC2(C=CC1=O)c1cc(OC)c(OC)cc1CCN2C(=O)c1ccccc1` (centres undefined) was tested, and the GI50 was inactive: > 100 µM.
With `C/C=C(/C)C(=O)O[C@H]1[C@H]2[C@@H]([C@@H](OC(C)=O)[C@H](C)C(=O)[C@@]34C[C@@H](C)C(=O)[C@]3(/C=C(\C)[C@H]1OC(C)=O)O4)C2(C)C` the GI50 was inactive: 5.86 µM.
With `OC1C#CCSCC#C/C=C\1` (centres undefined) the GI50 was inactive: > 100 µM.
`CC(C)(C)[Si](C)(C)OCC1OC(n2cnc3c(N)ncnc32)CC1O` (centres undefined) was tested, and the GI50 was inactive: > 100 µM.
`COc1ccc(-c2c(C#N)c(N)nc(Sc3ccccc3N)c2C#N)cc1` was tested, and the GI50 was inactive: 29.5 µM.
In the case of `COCCOC(=O)C(C)=[N+]=[N-]`, the GI50 was inactive: > 100 µM.
With `Nc1nc(Cl)cc(NCC2(O)CCCC2)n1` the GI50 was inactive: > 100 µM.
In the case of `CCOC(=O)N1CCN(c2ccc3c(C)cc(C)nc3n2)CC1`, the GI50 was inactive: > 100 µM.
In the case of `Clc1cccc(C2ON=C(c3ccccc3)N2C23CC4CC(CC(C4)C2)C3)c1Cl` (centres undefined), the GI50 was inactive: > 10 µM.
In the case of `CCOC(=O)c1c2ccccc2n2c(=O)n(C)nnc12`, the GI50 was inactive: > 100 µM.
In the case of `Clc1ccccc1C(Nc1cnccn1)Nc1cnccn1`, the GI50 was inactive: > 100 µM.
With `C=C(CN(C)C)C(=O)c1ccccc1` the GI50 was inactive: > 39.5 µM.
For `c1cc(-c2ccc(-c3nc4ccc(C5=NCCN5)cc4s3)s2)ccc1C1=NCCN1`, the GI50 was active: 0.344 µM.
In the case of `Cc1nc2ccccc2c(=O)n1CC(=O)O`, the GI50 was inactive: > 100 µM.
With `Cc1ccc(C)c(NC(=O)C(=O)C(C2C(C)CC(=O)C2CC(=O)O)[N+](=O)[O-])c1` (centres undefined) the GI50 was inactive: > 100 µM.
For `Cc1cc(=O)oc2c(C)c(O)ccc12`, the GI50 was inactive: > 100 µM.
`Cc1cccc(/C=C2\CCCc3ccccc3C2=O)c1` was tested, and the GI50 was inactive: 25.8 µM.
